From PubChem BioAssay AID463173 (ICCB-Longwood Screening Facility, Harvard Medical School, 2010)
About 4,300 (8.3%) of roughly 52,000 compounds were called active. Cut-off read from the data, not from the text of the source: active = survival mostly below about 52% (no sharp cut-off); inactive = mostly above about 56%. This is one part of the list.

These molecules were tested on DeltatarO mutant (assay: growth inhibition of S. aureus wild type versus tarO mutant, primary screen, teichoic acid synthesis inhibitors, RN4220, OD600 (AID 463173)). Details: OD600, 18 h, active compounds read low, screened at 18.75 µg/mL (by protocol).

Structure (SMILES) | survival
Cc1cc(NC(=O)CN(c2cccc(C)c2C)S(=O)(=O)c2ccccc2)ccc1Br | inactive: 72%
CCCOc1ccc(CNC(=O)C2CCN(c3nn4c(=O)cc(C)nc4s3)CC2)cc1 | inactive: 110%
N#Cc1ccccc1NC(=O)C(=O)NCC(c1cccnc1)N1CCN(c2ccccc2)CC1 (stereo unspecified) | inactive: 96%
Cc1cccc(C(=O)Nc2cccc(C(=O)OCc3cc(=O)n4nc(C5CC5)sc4n3)c2)c1 | inactive: 83%
CCOc1ccc(C(=O)Nc2ccc3nc(SCC(=O)N4CCOCC4)sc3c2)cc1 | inactive: 80%
CCN1CCN(C(=O)c2ccc3c(c2)N(Cc2cc(C)ccc2C)C(=O)c2ccccc2S3(=O)=O)CC1 | inactive: 68%
Cc1cccc(NC(=O)CN2C(=O)CCc3ccccc32)c1C | inactive: 103%
CCOc1ccc(CCNC(=O)c2cnc3c(-c4ccccc4)c(C)nn3c2C)cc1OCC | active: 20%
COc1ccc(N2CCN(c3oc(/C=C/c4cccc(OC)c4)nc3C#N)CC2)cc1 | inactive: 73%
CCc1ccc(CNC(=O)C2CCN(c3nnc(-n4c(C)ccc4C)s3)CC2)cc1 | inactive: 86%
O=[N+]([O-])c1ccc(C(c2sc3nc(-c4ccco4)nn3c2O)N2CCC3(CC2)OCCO3)cc1 (stereo unspecified) | inactive: 87%
CC(C)c1ccc(OCC(=O)Nc2cc(-c3nc4ncccc4o3)ccc2Cl)cc1 | inactive: 150%
COc1cc(CNCCSc2nnnn2C)ccc1OCc1c(F)cccc1Cl | inactive: 58%
Cc1cccc(-c2nnc(SCCC(=O)O)o2)c1 | inactive: 80%
O=C(CN1CCOCC1)n1c2ccccc2c2ccccc21 | inactive: 90%
Cn1c(C(=O)OC(C(=O)NCc2ccccc2)c2ccccc2)cc2sccc21 (stereo unspecified) | inactive: 74%
CCC(=O)Nc1ccc(C)cc1-c1nc2ccccc2n(Cc2ccccc2)c1=O | inactive: 76%
CCN(C(=O)c1cc2c(Cl)nc3ccc(C)cc3c2s1)c1cc(OC)ccc1OC | inactive: 61%
Cc1oc(-c2cccc(Cl)c2)nc1CSCC(=O)O | inactive: 75%
COc1ccccc1C(=O)Nc1c(C(=O)Nc2ccc(C)cc2)oc2ccccc12 | inactive: 84%
CC1(c2ccccc2)CC(C)(C)N(C(=O)c2ccccc2Cl)c2ccccc21 (stereo unspecified) | active: -4%
COc1ccc(NC(=O)C2CCCN2S(=O)(=O)c2ccc3c(c2)CCCC(=O)N3)cc1Cl (stereo unspecified) | inactive: 75%
COc1cc(C2CC(=O)Nc3cc4c(cc32)OCCO4)cc(OC)c1O (stereo unspecified) | inactive: 97%

Structure (SMILES) | survival
CCCCC(=O)Nc1ccc(OCc2cc(=O)n3ccc(C)cc3n2)cc1 | inactive: 89%
CCCC1=C(C(=O)OCC)C(c2cccnc2)n2ncnc2N1 (stereo unspecified) | inactive: 79%
CCCCN(CCCC)c1nc(-c2ccccc2)nc2ccccc12 | inactive: 30%
Cc1ccc(OCc2cc(=O)n3ccsc3n2)c(NC(=O)c2ccco2)c1 | inactive: 70%
COc1ccc(N(C)C(=O)C2CCN(S(=O)(=O)c3cc(Br)cc4c3N(C(C)=O)CC4)CC2)cc1 | inactive: 99%
Cn1c(=O)n(C)c2cc(N3CCCCC3)c(NC(=O)c3c(F)cccc3F)cc21 | inactive: 75%
CCOC(=O)c1cc(-c2ccccc2)n(CCC(=O)NCCc2ccc(OC)c(OC)c2)c1C | inactive: 79%
Cc1cccc(NC(=O)c2c(N)sc3c2CCC(C)C3)c1 (stereo unspecified) | inactive: 59%
COc1ccc(-c2cccc(NS(=O)(=O)c3cc(C)ccc3OC)c2)nn1 | inactive: 122%
CCc1cccc(C)c1NS(=O)(=O)c1ccc(-c2cc(C)no2)s1 | inactive: 94%
O=C(Nc1ccc2nn(-c3ccc(Cl)cc3)nc2c1)c1cc2ccccc2o1 | inactive: 65%
Cc1ccccc1Nc1c(-c2ccc(N3CCOCC3)cc2)nc2ccc(Cl)cn12 | inactive: 106%
CS(=O)(=O)N1CCN(c2ccc(NC(=O)c3ccc4c(c3)OCO4)cc2)CC1 | inactive: 87%
Cc1ccccc1NC(=O)c1c(NC(=O)c2cccs2)sc2c1CCC(C)C2 (stereo unspecified) | inactive: 59%
N#Cc1nc(/C=C/c2ccc(F)cc2)oc1NC1CCCCC1 | inactive: 90%
O=C(Cn1c(=O)n2nc(-c3cccc(F)c3)nc2c2ccccc21)NCc1ccc(Cl)cc1 | inactive: 55%
COc1cccc(NC(=O)Cn2c(=O)n(Cc3ccco3)c(=O)c3cc(OC)c(OC)cc32)c1 | inactive: 90%
COc1ccc(S(=O)(=O)N2CCC(C(=O)NC3CC3)CC2)cc1Cl | inactive: 90%
Cc1ccn2c(Nc3ccccc3C)c(-c3ccccc3)nc2c1 | active: 0%
Cc1cccc(OCC(=O)Nc2ccccc2OCc2cc(=O)n3cc(C)ccc3n2)c1 | inactive: 94%
Cc1ccc(NC(=O)CSc2nnc(COc3ccc(Cl)cc3)o2)c(C)c1 | inactive: 47%
O=C(Nc1ccc2nc(SCC(=O)N3CCOCC3)sc2c1)c1ccccc1Cl | inactive: 83%
CCn1ccc2cc(S(=O)(=O)N3CCC(C(=O)NCc4ccc(F)cc4)CC3)ccc21 | inactive: 85%
